Measurements: the supplement of paper PMC11369174, “Proteome-scale characterisation of motif-based interactome rewiring by disease mutations” (Molecular Systems Biology, 2024)
The other results are listed elsewhere or left out. These are enrichments in a pooled selection; single values are uncertain.

T1: EPHA3_Pkinase__P29320_606_947
T1 chain: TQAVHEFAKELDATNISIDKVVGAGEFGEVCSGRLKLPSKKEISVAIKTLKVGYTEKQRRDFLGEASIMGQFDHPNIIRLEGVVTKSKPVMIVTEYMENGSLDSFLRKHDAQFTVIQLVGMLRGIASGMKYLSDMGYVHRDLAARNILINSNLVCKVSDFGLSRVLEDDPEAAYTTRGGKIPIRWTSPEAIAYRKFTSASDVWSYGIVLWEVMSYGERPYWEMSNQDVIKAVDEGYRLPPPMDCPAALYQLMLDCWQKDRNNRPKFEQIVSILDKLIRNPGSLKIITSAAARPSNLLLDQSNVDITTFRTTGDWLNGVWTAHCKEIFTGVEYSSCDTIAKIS

T2: EPHB2_Pkinase__P29323_604_898
T2 chain: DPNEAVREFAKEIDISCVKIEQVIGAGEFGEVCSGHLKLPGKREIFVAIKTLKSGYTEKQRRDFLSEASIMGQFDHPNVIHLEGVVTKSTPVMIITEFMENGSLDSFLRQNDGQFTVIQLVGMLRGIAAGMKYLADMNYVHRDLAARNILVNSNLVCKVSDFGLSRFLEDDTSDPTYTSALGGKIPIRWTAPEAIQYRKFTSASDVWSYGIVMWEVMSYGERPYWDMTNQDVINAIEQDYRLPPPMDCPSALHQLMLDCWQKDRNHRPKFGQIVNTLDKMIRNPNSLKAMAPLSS

T3: Bub1_TPR__O43683_1_150
T3 chain: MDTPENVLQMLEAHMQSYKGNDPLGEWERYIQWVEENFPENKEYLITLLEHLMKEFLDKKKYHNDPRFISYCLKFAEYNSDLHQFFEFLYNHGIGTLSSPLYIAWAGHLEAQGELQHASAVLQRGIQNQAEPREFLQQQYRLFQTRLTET

T4: CHD1_tandem-chromo__O14646_268_443
T4 chain: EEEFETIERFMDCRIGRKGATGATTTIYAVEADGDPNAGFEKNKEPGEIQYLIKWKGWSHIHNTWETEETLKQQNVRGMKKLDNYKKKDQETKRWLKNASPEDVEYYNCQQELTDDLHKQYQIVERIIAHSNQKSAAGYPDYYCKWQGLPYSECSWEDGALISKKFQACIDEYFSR

T5: CLTC_Clathrin-propeller__Q00610_1_364
T5 chain: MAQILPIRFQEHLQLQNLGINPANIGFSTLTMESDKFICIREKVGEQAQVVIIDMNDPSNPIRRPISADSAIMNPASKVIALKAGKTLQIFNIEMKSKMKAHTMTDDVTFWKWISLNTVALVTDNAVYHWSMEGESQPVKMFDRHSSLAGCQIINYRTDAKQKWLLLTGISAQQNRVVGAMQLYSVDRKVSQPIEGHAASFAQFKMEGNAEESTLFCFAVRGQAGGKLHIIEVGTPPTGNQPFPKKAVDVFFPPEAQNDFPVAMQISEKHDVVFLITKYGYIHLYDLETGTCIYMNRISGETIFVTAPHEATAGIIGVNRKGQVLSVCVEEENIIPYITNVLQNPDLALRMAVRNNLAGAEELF

T6: GGA1_VHS__Q9UJY5_1_157
T6 chain: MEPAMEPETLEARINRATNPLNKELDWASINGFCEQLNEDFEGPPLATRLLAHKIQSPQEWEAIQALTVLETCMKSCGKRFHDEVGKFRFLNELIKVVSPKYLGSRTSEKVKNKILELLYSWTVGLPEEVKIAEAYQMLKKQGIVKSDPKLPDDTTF


target: BRD4_NET__O60885_601_683; assay: mean normalised NGS count of phage-displayed peptide after selection on bait (% of reads); baits are purified protein domains named by gene / domain / UniProt id / residues; peptides come from disordered regions of human proteins; higher = stronger enrichment / binding; conditions: replicate selections in which the peptide was seen: 3
Sequence (chain, as listed by the source): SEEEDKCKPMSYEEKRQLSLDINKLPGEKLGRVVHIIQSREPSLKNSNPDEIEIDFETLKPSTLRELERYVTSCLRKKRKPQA

| Binder | mean normalised NGS count |
| --- | --- |
| WGEQLLRARAGQDISA [FA2H 45-60 mut Q7L5A8.G45W] | 0.0687 |

same assay, conditions: replicate selections in which the peptide was seen: 4

| Binder | mean normalised NGS count |
| --- | --- |
| QMEKIPLLRISSADQN [BRCA2 407-422 mut P51587.H415R] | 0.525 |
| QVTTYLHKDYNNLWII [POMT2 372-387 wt] | 0.0829 |

same assay, conditions: replicate selections in which the peptide was seen: 5

| Binder | mean normalised NGS count |
| --- | --- |
| WARDRIQQGWTYGIQQ [RYR2 1007-1022 mut Q92736.R1013Q] | 3.29 |

Target: T1, EPHA3_Pkinase__P29320_606_947
Assay: as above
Conditions: replicate selections in which the peptide was seen: 2

| Binder | mean normalised NGS count |
| --- | --- |
| WARDRIQQGWTYGIQQ [RYR2 1007-1022 mut Q92736.R1013Q] | 1.21 |

Target: T2, EPHB2_Pkinase__P29323_604_898
Assay: as above
Conditions: replicate selections in which the peptide was seen: 2

| Binder | mean normalised NGS count |
| --- | --- |
| WARDRIQQGWTYGIQQ [RYR2 1007-1022 mut Q92736.R1013Q] | 0.183 |

target: BRD4_NET__O60885_601_683; assay: as above; conditions: replicate selections in which the peptide was seen: 6

| Binder | mean normalised NGS count |
| --- | --- |
| ITNILKRSGEQIWSVS [NALCN 167-182 wt] | 27.5 |
| QFTTYLHKDYNNLWII [POMT2 372-387 mut Q9UKY4.V373F] | 8.71 |

Target: T3, Bub1_TPR__O43683_1_150
Assay: as above
Conditions: replicate selections in which the peptide was seen: 3

| Binder | mean normalised NGS count |
| --- | --- |
| RQGGSHTLSSFLTFLA [TBXA2R 53-68 mut P21731.R60L] | 0.107 |

Same assay, conditions: replicate selections in which the peptide was seen: 5

| Binder | mean normalised NGS count |
| --- | --- |
| LFEDLLRQMSDLRLQA [SPART 322-337 wt] | 83.1 |

Target: T4, CHD1_tandem-chromo__O14646_268_443
Assay: as above
Conditions: replicate selections in which the peptide was seen: 2

| Binder | mean normalised NGS count |
| --- | --- |
| QRIRSTATPNVHMVST [ARAF 208-223 mut P10398.S214A] | 4.39 |
| RALDFLSRLPSPPPVS [BRCA2 3269-3284 mut P51587.L3279S] | 0.0324 |

Same assay, conditions: replicate selections in which the peptide was seen: 3

| Binder | mean normalised NGS count |
| --- | --- |
| ASLIRGNSSNAALFST [RYR1 526-541 mut P21817.R533S] | 25.1 |

Same assay, conditions: replicate selections in which the peptide was seen: 4

| Binder | mean normalised NGS count |
| --- | --- |
| QRIRSTSTPNVHMVST [ARAF 208-223 wt] | 35.6 |

Target: T5, CLTC_Clathrin-propeller__Q00610_1_364
Assay: as above
Conditions: replicate selections in which the peptide was seen: 2

| Binder | mean normalised NGS count |
| --- | --- |
| AGLPYAWNADTDLVSW [PQBP1 60-75 mut O60828.Y65C] | 0.0034 |

Target: T6, GGA1_VHS__Q9UJY5_1_157
Assay: as above
Conditions: replicate selections in which the peptide was seen: 3

| Binder | mean normalised NGS count |
| --- | --- |
| AGLPYAWNADTDLVSW [PQBP1 60-75 mut O60828.Y65C] | 0.0451 |

Target: T5, CLTC_Clathrin-propeller__Q00610_1_364
Assay: as above
Conditions: replicate selections in which the peptide was seen: 5

| Binder | mean normalised NGS count |
| --- | --- |
| NLLDLEEIAKAPLSTV [LDLRAP1 211-226 mut Q5SW96.T218I] | 0.00483 |
| LTEGLDLISMLTDDAI [DNAH11 3449-3464 mut Q96DT5.T3464I] | 25.1 |

Same assay, conditions: replicate selections in which the peptide was seen: 6

| Binder | mean normalised NGS count |
| --- | --- |
| ANTLPVSGNLIDLAGN [MITF 252-267 mut O75030.Y265C] | 0.359 |
| ANTLPVSGNLIDLYGN [MITF 252-267 wt] | 1.11 |
| PVSGNLIDLAGNQGLP [MITF 256-271 mut O75030.Y265C] | 0.038 |
| PVSGNLIDLYGNQGLP [MITF 256-271 wt] | 0.248 |
| NLIDLAGNQGLPPPGL [MITF 260-275 mut O75030.Y265C] | 1.47 |
| NLIDLYGNQGLPPPGL [MITF 260-275 wt] | 5.56 |
| METPVTLINFWPVDSV [DMD 3406-3421 mut P11532.A3421V] | 36.2 |
| VTLINFWPVDSVPASS [DMD 3410-3425 mut P11532.A3421V] | 2.89 |
| DLLDFHQDLLAHAGIQ [RYR1 2030-2045 wt] | 3.2 |
| SNNLNLLSFEDLTTGG [WRN 312-327 mut Q14191.S323L] | 0.0574 |
| SNNLNLLSFEDSTTGG [WRN 312-327 wt] | 0.0773 |
| NLLSFEDLTTGGVQQK [WRN 316-331 mut Q14191.S323L] | 9.64 |
| NLLSFEDSTTGGVQQK [WRN 316-331 wt] | 0.831 |
| VATGNLLDLEEIAKAP [LDLRAP1 207-222 mut Q5SW96.T218I] | 0.0189 |
